Data: PubChem BioAssay AID686979 (National Center for Advancing Translational Sciences (NCATS), 2013)
Where “and” joins values, the source holds several entries; their conditions need not be identical. Equal values may be shown once. Among all 420,000 compounds or so, about 50,000 (12%) were called active. The shares of active, inactive and inconclusive entries below differ from those in the screen. Calls follow the shape of the dose curve; as a rule, active = well fitted inhibition curve with a large enough effect; inconclusive = small, poorly fitted or top-dose-only effect; inactive = flat fitted curve, though single readings scatter. A potency beside an inconclusive call is a rough fit, not a confirmed value.

Assay: qHTS for Inhibitors of human tyrosyl-DNA phosphodiesterase 1 (TDP1): qHTS in cells in presence of CPT; also: nearly all actives have a fitted effect of over 55% in size
Conditions: chicken DT40 Tdp1-/-;hTDP1 cells + 20 nM CPT, ATP luminescence, 48 h; activity change, negative = growth inhibition: at 46.2 µM (top of the series) unless noted
How it was run: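 Cell growth measured by CellTiter-Glo luminescence after a minimum 48 h, 37 C compound exposure with 20 nM CPT in Tdp1-knockout DT40 cells stably expressing hTDP1, seeded 400/well; qHTS titration format.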
% is scaled to controls: 0 for no effect and ±100 for the full control effect; potency is read from the fitted curve at half-maximal effect; tags tell the direction and shape of the fitted curve.

Row | Compound | Potency | activity change, negative = growth inhibition
1 | Cc1ccc(-c2nnc(SC(C)C(=O)NCC3CCCO3)nc2-c2ccc(C)cc2)cc1 (centres undefined) | inconclusive: 29.1 µM [inhibitor, single point] | 
2 | CCn1cc(C(=O)NCc2ccc(C)cc2)c(=O)c2cc(S(=O)(=O)N3CCC(C)CC3)ccc21 |  | inactive: -5.94%
3 | O=C(NCCSCc1ccc(Cl)cc1)C1CCN(S(=O)(=O)Cc2ccccc2)CC1 |  | inactive: -26.6%
4 | Cn1nc(C(=O)Nc2cccc(S(=O)(=O)N3CCCCC3)c2)c2ccccc2c1=O | inconclusive: 25.9 µM [inhibitor, single point] | 
5 | [N-]=[N+]=N[C@@H](CCN1CC[C@H](NC(=O)OCc2ccccc2)CCC1=O)c1ccccc1 | inconclusive: 31.6 µM [inhibitor, single point] and inconclusive: 29.1 µM [inhibitor, single point] | 
6 | Cc1ccccc1C(N)=O |  | inactive: 12.7%
7 | Cc1ccc(-c2c(C(=O)Nc3ccc(F)c(F)c3)oc(=O)c3ccccc23)cc1 | inconclusive: 29.1 µM [inhibitor, single point] | 
8 | COc1ccccc1C(=O)NNC(=O)c1ccccc1Br |  | inactive: -6.76%
9 | COc1ccc(/C=C/C(=O)C2(O)CCCCC2)cc1 | inconclusive: 25.9 µM [inhibitor, single point] | 
10 | Cc1ccc(S(=O)(=O)N(CCCc2c(C)nc(N)[nH]c2=O)Cc2ccc([N+](=O)[O-])cc2)cc1 | inconclusive: 16.4 µM [inhibitor, partial curve] | 
11 | CC(=O)c1nn(-c2cccc(Br)c2)cc1C(=O)c1ccc(C)cc1 | inconclusive: 29.1 µM [inhibitor, single point] | 
12 | CCOC(=O)C1=CCN(S(=O)(=O)c2ccccc2Cl)C1c1ccc(C)cc1 (centres undefined) | active: 25.9 µM | 
13 | CC(C)Nc1nc(NCCOc2ccccc2Cl)c2sc(-c3ccccc3)cc2n1 | active: 6.51 µM | 
14 | CN(C)C(=O)c1cccn(Cc2cccc(C(F)(F)F)c2)c1=O |  | inactive: -13.1%
15 | CC(c1ccon1)N(C)Cc1cn[nH]c1-c1ccc(-c2ccccc2)cc1 (centres undefined) | inconclusive: 29.1 µM [inhibitor, single point] | 
16 | O=C(CN1C(=O)C2CCCCN2c2ccc(C(=O)N3CCCC3)cc21)NCc1cccc(Cl)c1 (centres undefined) | inconclusive: 18.4 µM [inhibitor, single point] | 
17 | CN(C)c1ccc(CNC(=O)c2cc3cc(S(=O)(=O)N4CCCCC4)ccc3n2C)cc1 | inconclusive: 25.9 µM [inhibitor, single point] | 
18 | Cc1cccc(N(Cc2ccccc2)C(=O)c2cc(S(=O)(=O)N3CCOCC3)ccc2Cl)c1 | active: 14.6 µM | 
19 | C#CCn1c(O)c(N=NC(=O)CNC(=O)c2cccnc2)c2ccccc21 |  | inactive: -14.1%
20 | COc1ccc(C2NC(=O)CCC2[N+](=O)[O-])c(OC)c1OC (centres undefined) |  | inactive: 2.16%
21 | CC(=O)N1CCC(C(=O)OCc2ccccc2F)(c2ccccc2)CC1 | inconclusive: 25.9 µM [inhibitor, single point] | 
22 | Cc1ccc(NC(=O)CSc2nnnn2C2CC2)cc1S(=O)(=O)N1CCOCC1 |  | inactive: -23.3%
23 | COc1cc2c(cc1NC(=O)/C=C/c1ccccc1)oc1ccccc12 | inconclusive: 18.4 µM [inhibitor, partial curve] | 

Row | Compound | Potency | activity change, negative = growth inhibition
24 | COc1ccc(N2C(=O)C3C4C=CC(CC4)C3C2=O)c([N+](=O)[O-])c1 (centres undefined) |  | inconclusive: -33.1% [inhibitor]
25 | O=C(CSCC(=O)N1CCCCC1)Nc1nc(-c2cccs2)cs1 |  | inactive: -24.5%
26 | CC(=O)[C@H]1CC[C@H]2[C@@H]3C[C@H](C)C4=CC(=O)CC[C@]4(C)[C@H]3[C@@H](O)C[C@]12C | inconclusive: 9.2 µM [inhibitor, partial curve] | 
27 | CCOC(=O)CN1C(=O)N2C[C@H]3CON(C)[C@H]3C[C@H]2c2ccccc21 | inconclusive: 25.9 µM [inhibitor, single point] | 
28 | Cc1ccc(Cl)c2sc(NC(=O)CS(=O)(=O)c3ccc(Cl)cc3)nc12 | inconclusive: 29.1 µM [inhibitor, single point] | 
29 | COc1ccc(NC(=O)C2(C)Cc3c(-c4ccc(C(N)=O)cc4)ccnc3O2)cc1 (centres undefined) |  | inactive: -10%
30 | CCCCOc1ccc(SCCCN2CCOCC2)cc1 | inconclusive: 20.6 µM [inhibitor, partial curve] | 
31 | C(=Cc1cnnc2ccccc12)c1ccccc1 | inconclusive: 25.9 µM [inhibitor, single point] | 
32 | CSc1ccccc1C(=O)Nc1cccc(C)c1 | inconclusive: 25.9 µM [inhibitor, single point] | 
33 | O=C(Nc1ccnc(=O)[nH]1)c1sc2ccccc2c1Cl | active: 14.6 µM | 
34 | CN(Cc1ccccc1)C(=O)CN1C(=O)COc2ccc(S(=O)(=O)N3CCCC3)cc21 |  | inactive: -12%
35 | Nc1ccc(OCCc2ccccc2)cc1 | inconclusive: 14.6 µM [inhibitor, single point] | 
36 | CCOC(=O)OC(C)OC1=C(C(=O)Nc2ccccn2)N(C)S(=O)(=O)c2ccccc21 (centres undefined) | inconclusive: 4.22 µM [inhibitor, full curve] | 
37 | Cc1nn(-c2ccccn2)c2c1-c1nc(N)ncc1CC2 | inconclusive: 20.6 µM [inhibitor, single point] | 
38 | O=C1C(Cl)=C(NCC2CCCO2)C(=O)N1c1ccccc1 (centres undefined) | inconclusive: 29.1 µM [inhibitor, single point] | 
39 | C=CCc1cccc(/C=N/NC(=O)CCC(=O)Nc2ccc(F)cc2)c1O | active: 9.2 µM | 
40 | C=CC(C)(C)c1[nH]cnc1/C=C1\NC(=O)C(C(C)C)NC1=O (centres undefined) | active: 11.6 µM | 
41 | CCc1cc2c(SCC(=O)NC3CCCC3)ncnc2s1 | inconclusive: 29.1 µM [inhibitor, single point] | 
42 | CC1CCN(C2=C(NS(=O)(=O)c3ccc(Br)cc3)C(=O)c3ccccc3C2=O)CC1 | inconclusive: 16.4 µM [inhibitor, single point] | 
43 | O=C(Cn1c(NCCCO)nc2ccccc21)c1ccc([N+](=O)[O-])cc1 | inconclusive: 18.4 µM [inhibitor, single point] | 
44 | COc1c(CO)cc(CO)cc(CO)c1=O |  | inactive: 3.58% [at 9.04 µM]
45 | COc1ccc(NC(=O)Cc2nnc(SCC(=O)c3ccc(F)cc3)n2C)cc1 |  | inactive: 7.52%
46 | CN(CC(=O)Nc1ccccc1Cl)C(=O)COC(=O)Cc1ccc(F)cc1 |  | inactive: -3.37%

Row | Compound | Potency | activity change, negative = growth inhibition
47 | CS(=O)(=O)c1ccc2nc(NC(=O)C3CC3)sc2c1 |  | inactive: -11.7%
48 | CCOC(=O)NNc1ccc2nonc2c1[N+](=O)[O-] | active: 6.51 µM | 
49 | O=C(CNC(=O)c1ccccc1Br)NCCSc1ccc(Br)cc1 | inconclusive: 29.1 µM [inhibitor, single point] | 
50 | CCN1CCN(c2cc(C)c3cc(NC(=O)c4ccc(C)c(C)c4)ccc3n2)CC1 | inconclusive: 20.6 µM [inhibitor, single point] | 
51 | COC(=O)c1c(C)cc(O)cc1O | inactive | 
52 | Cc1cccc(N2CCN(C(=O)CSCc3ccc(F)cc3)CC2)c1C | inconclusive: 29.1 µM [inhibitor, single point] | 
53 | CCCCN(C)C(=O)C1CCCN(c2ncnc3onc(-c4ccc(F)cc4)c23)C1 (centres undefined) | active: 14.6 µM | 
54 | COc1ccc(N2C(S)=C(C#N)C(=O)NC2c2ccco2)cc1 (centres undefined) | inconclusive: 18.4 µM [inhibitor, single point] | 
55 | O=C(Cn1c(=O)oc2cc(S(=O)(=O)N3CCCC3)ccc21)N1CCN(c2ccccc2)CC1 | inconclusive: 10.3 µM [inhibitor, partial curve, poor fit] | 
56 | O=[N+]([O-])c1cccc(COc2ccc(CN3CCOCC3)cc2)c1 | inconclusive: 29.1 µM [inhibitor, single point] | 
57 | CC(C(=O)N1CCc2ccccc21)N(C)CC(=O)Nc1ccccc1Cl (centres undefined) | inconclusive: 16.4 µM [inhibitor, single point] | 
58 | CC(=O)Nc1cccc(Oc2nc(NC(C)C)nc3cc(-c4ccccc4)sc23)c1 | inconclusive: 29.1 µM [inhibitor, single point] | 
59 | CCC1Sc2ccc(S(=O)(=O)CCC(=O)Nc3ccccc3Cl)cc2NC1=O (centres undefined) |  | inactive: -28%
60 | CCc1cc(/C(Cc2csc(C)n2)=N/O)c(O)cc1O | inconclusive: 16.4 µM [inhibitor, single point] | 
61 | O=C(NCCc1ccccc1)C(=O)NCC1OCCN1S(=O)(=O)c1cc(F)ccc1F (centres undefined) | inconclusive: 29.1 µM [inhibitor, single point] | 
62 | COC(=O)CSc1nc(N2CCOCC2)c2c(c1C#N)CCCC2 | inconclusive: 8.2 µM [inhibitor, partial curve] | 
63 | CCCOC(=O)c1ccc(Oc2c(-c3ccc(O)cc3O)n[nH]c2C)cc1 | inconclusive: 16.4 µM [inhibitor, partial curve] | 
64 | CN(CCOc1ccc(Br)cc1)CC(O)COc1ccc(C#N)cc1 (centres undefined) | inconclusive: 23.1 µM [inhibitor, single point] | 
65 | C=CCNc1nc(S(=O)Cc2ccc(C)cc2)nc2c1CCCC2 (centres undefined) | inconclusive: 29.1 µM [inhibitor, single point] | 
66 | CCC(C)[C@H]1CNCCN1CCc1cc(C(F)(F)F)cc(C(F)(F)F)c1 (some centres undefined) | inconclusive: 25.9 µM [inhibitor, single point] | 
67 | CCC(=O)N1CCc2cc(S(=O)(=O)CCC(=O)NCc3cccs3)ccc21 | inconclusive: 23.1 µM [inhibitor, single point] | 
68 | COc1ccc(CNC(=O)CCC(=O)N2CC3CCCN3c3ccccc32)cc1 (centres undefined) | active: 11.6 µM | 
69 | COc1ccccc1CNC(=O)c1ccc(CS(=O)(=O)c2ccccc2C)o1 | inconclusive: 20.6 µM [inhibitor, single point] and inconclusive: 13 µM [inhibitor, partial curve] | 
